Assay results as given in paper PMC4336329 (PLoS ONE, 2015).
About 14,000 (4.5%) of roughly 310,000 compounds showed an effect of 50% or more. The effect is printed as a negative number. Some of the results follow.

What follows are compounds tested against human ether-à-go-go-related gene (hERG) potassium channel (human, UniProt Q12809) (assay: primary screen, population patch clamp on CHO cells stably expressing hERG).
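Also: peak tail current of the secondary pulse compared with the same well before compound.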

Chain of human ether-à-go-go-related gene (hERG) potassium channel (Q12809 whole entry, looked up): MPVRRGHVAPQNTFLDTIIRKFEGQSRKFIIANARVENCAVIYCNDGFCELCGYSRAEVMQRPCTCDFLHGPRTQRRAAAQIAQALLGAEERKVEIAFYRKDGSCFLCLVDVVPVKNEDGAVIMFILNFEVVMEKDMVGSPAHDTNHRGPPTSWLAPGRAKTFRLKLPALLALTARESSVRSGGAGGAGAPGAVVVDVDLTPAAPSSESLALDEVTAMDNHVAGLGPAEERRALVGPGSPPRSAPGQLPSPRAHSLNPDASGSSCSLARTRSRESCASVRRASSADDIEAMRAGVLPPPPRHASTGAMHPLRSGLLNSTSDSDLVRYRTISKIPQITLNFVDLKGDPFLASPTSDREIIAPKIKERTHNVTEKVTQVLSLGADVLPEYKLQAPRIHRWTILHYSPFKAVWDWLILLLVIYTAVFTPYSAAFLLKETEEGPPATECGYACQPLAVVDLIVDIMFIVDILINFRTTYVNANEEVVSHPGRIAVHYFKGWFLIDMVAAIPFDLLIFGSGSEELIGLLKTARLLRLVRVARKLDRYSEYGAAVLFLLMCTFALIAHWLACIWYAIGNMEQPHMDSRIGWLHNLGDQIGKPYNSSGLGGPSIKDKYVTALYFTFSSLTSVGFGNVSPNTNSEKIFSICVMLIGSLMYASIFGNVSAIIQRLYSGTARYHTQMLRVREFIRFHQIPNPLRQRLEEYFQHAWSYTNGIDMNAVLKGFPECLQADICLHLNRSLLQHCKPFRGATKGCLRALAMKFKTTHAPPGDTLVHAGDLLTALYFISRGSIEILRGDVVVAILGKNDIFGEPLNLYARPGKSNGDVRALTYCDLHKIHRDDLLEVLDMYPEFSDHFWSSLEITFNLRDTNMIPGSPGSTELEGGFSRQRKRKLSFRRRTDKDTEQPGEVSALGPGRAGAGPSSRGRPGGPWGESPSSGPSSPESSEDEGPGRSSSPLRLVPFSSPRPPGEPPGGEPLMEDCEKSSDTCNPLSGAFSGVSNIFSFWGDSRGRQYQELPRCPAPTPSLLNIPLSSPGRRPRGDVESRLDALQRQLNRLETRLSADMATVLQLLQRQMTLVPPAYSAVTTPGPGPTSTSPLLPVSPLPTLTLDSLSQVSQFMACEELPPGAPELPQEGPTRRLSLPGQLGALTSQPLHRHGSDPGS

Row | Structure (SMILES) | hERG current change (%, negative = inhibition) at 10uM
1 | COC(=O)c1cc(-c2cccc([N+](=O)[O-])c2)c2c(=O)[nH]c(=O)n(C)c2n1 | 6.48%
2 | Cc1cccc(C(=O)Nc2nccs2)c1[N+](=O)[O-] | 11.4%
3 | COc1cc2c(cc1/C=C/C(=O)O)OC(C)C2 (stereo not drawn) | -2.09%
4 | NC(=O)c1oc2ccc(Cl)cc2c1N | 2.24%
5 | COc1cc(CN(C)CCc2ccccn2)cc(OC)c1OC.O=C(O)C(=O)O | -11.6%
6 | Nc1ccccc1N1C(=O)c2cccc3cccc(c23)C1=O | -0.337%
7 | O=C(CCS(=O)(=O)c1ccc(F)cc1)Nc1nc(-c2ccccn2)cs1 | -12.6%
8 | CC(=O)N1CCN(Cc2nc3cc(NC(=O)c4ccccc4)ccc3n2C)CC1 | 15.8%
9 | Cc1ccc(OCCOc2cccc(/C=N/NC(N)=O)c2)cc1 | 14.5%
10 | COc1ccc(C2C(C(=O)N3CCCC3)c3cc(OC)c(OC)cc3C(=O)N2C)cc1 (stereo not drawn) | 3.08%
11 | O=C(COC(=O)C12CC3CC(CC(C3)C1)C2)Nc1ccc2[nH]c(=O)[nH]c2c1 | 2.25%
12 | CCOc1ccc(C(=O)SC2=NCCS2)cc1 | -3.96%
13 | O=C(CCNc1n[nH]c(=O)[nH]c1=O)N1CCCCC1 | 7.04%
14 | COc1ccc(C(C(=O)NC2CCCC2)N2CCc3ccccc32)cc1 (stereo not drawn) | 9.68%
15 | Cc1c(OC(C(=O)O)c2ccccc2)ccc2c1oc(=O)c1ccccc12 (stereo not drawn) | 17.3%
16 | Cc1cc(C(F)(F)F)c(C#N)c(N2CCOCC2)n1 | -10.3%
17 | O=C(N/N=C/c1ccc2cccnc2c1)c1nc2ccccc2c(=O)[nH]1 | 5.32%
18 | O=C1CCN(S(=O)(=O)c2ccccc2)N1 | 7.12%
19 | O=C(O)CCCC(=O)Nc1ccc(C(=O)N2CCCCC2)cc1 | 14.7%

Row | Structure (SMILES) | hERG current change (%, negative = inhibition) at 10uM
20 | CCOc1ccc(S(=O)(=O)N2CCOCC2)c2ccccc12 | -1.09%
21 | Cc1cccc(N2CCN(CCCNC(=O)C3CCCN(c4ncnc5c4nc4n5CCCCC4)C3)CC2C)c1 (stereo not drawn) | -67.8%
22 | CCOC(=O)CSc1nc(-c2ccccc2)nc2ccccc12 | 1.69%
23 | COc1ccc(N2Cc3ccccc3C2=NC(=O)c2ccc(C)cc2)cc1OC | 1.81%
24 | CC1CN(S(=O)(=O)c2cccc(C(=O)NCC3COc4ccccc4O3)c2)CC(C)O1 (stereo not drawn) | -41.3%
25 | CC(=O)NC(CC(=O)NCC(c1ccco1)N(C)C)c1ccccc1 (stereo not drawn) | -3.13%
26 | CCOC(=O)C(=CNc1cc(C)nn1-c1ccc(Cl)cc1)C(=O)OCC | 2.31%
27 | Cn1nc(C(F)(F)F)cc1C(=O)O | 22.5%
28 | CCc1ccc(NC(=O)C(C)OC(=O)c2ccc(NS(=O)(=O)c3ccc(C)c([N+](=O)[O-])c3)cc2)cc1 (stereo not drawn) | 4.28%
29 | COc1ccc2[nH]cc(S(=O)(=O)c3ccc(C(C)C)cc3)c(=O)c2c1 | 9.12%
30 | CC/C=C/C(=O)N1CC2(CC(c3cccc(NC(=O)CC(c4ccccc4)c4ccccc4)c3)=NO2)C[C@@H]1C(N)=O (stereo partly drawn) | 14.6%
31 | O=C(OCCN1C(=O)c2cccc3c(N4CCOCC4)ccc(c23)C1=O)c1ccc(Cl)cc1Cl | 5.21%
32 | CCCn1c(NCc2cc(OC)ccc2OC)nc2ccccc21 | -51.3%
33 | Cl.Nc1ccc(N)c(C(=O)O)c1 | 9.65%
34 | O=C(NCC1CC1)Nc1ccccc1F | 18.8%
35 | COc1ccc(S(=O)(=O)N2CCCc3ccccc32)cc1[N+](=O)[O-] | -4.01%
36 | O=[N+]([O-])c1cccc(N=Cc2sc3ccccc3c2O)c1 | 35.2%
37 | CCn1cc(CN2CCCC(CNS(=O)(=O)Cc3ccccc3)C2)cn1 (stereo not drawn) | 16.1%
38 | CCc1ccccc1S(=O)(=O)Cc1ccc(C(=O)NCc2cccs2)o1 | -22.5%

Row | Structure (SMILES) | hERG current change (%, negative = inhibition) at 10uM
39 | O=C(O)c1ccc(-c2noc(-c3cccc(F)c3)n2)cc1 | -6.44%
40 | CN(c1cccc(NC(=O)CN(c2cccc(F)c2)S(C)(=O)=O)c1)S(C)(=O)=O | 3.24%
41 | COC(=O)Cn1c(=NC(=O)c2nc3ccccc3s2)sc2cc(S(N)(=O)=O)ccc21 | 6.74%
42 | Cc1nnc(SCC(=O)Nc2cccc(C(F)(F)F)c2)[nH]c1=O | 8.84%
43 | CCOc1ccccc1NC1=CC(=O)CC(c2ccccc2)C1 (stereo not drawn) | -16.9%
44 | O=S1(=O)CC2SC(=S)N(c3ccccc3)C2C1 (stereo not drawn) | 7.98%
45 | CC(C)(C)NC[C@H](O)COc1cccc2c1CCCC2=O.Cl | 6.43%
46 | COc1ccc(/C=C/c2nc(N)nc(-c3ccccc3O)n2)cc1OC | 10.2%
47 | Cc1nc2ccccc2n1CC(O)COc1ccc(Br)cc1 (stereo not drawn) | -49.9%
48 | CCO.CCOC(=O)c1c(-c2ccccc2)oc2ccc(OC(C)C(=O)O)cc12 (stereo not drawn) | -15%
49 | FC(F)(F)c1nnc2sc(-c3ccncc3)nn12 | 0.462%
50 | CCN(CC)c1ccc(-n2c(C)cc(C=O)c2C)cc1 | 6.33%
51 | Cc1cc(OCC(=O)Nc2ccccc2C)no1 | 14%
52 | CC(C)NC(=O)CSc1nc(N)c(-c2ccccc2)c(=O)[nH]1 | 9.83%
53 | CCc1c(C(=O)Nc2ccc(S(=O)(=O)N3CCOCC3)cc2)csc1C | -22.3%
54 | O=C(Nc1nccs1)c1ccc(Cl)c([N+](=O)[O-])c1 | 10.6%
55 | CCN(c1ccccc1)S(=O)(=O)c1ccc(C(=O)Nc2nccs2)cc1 | 8.62%
56 | COc1ccc(-n2c(=S)[nH]c3cc(C(=O)Nc4cccc(C)c4)ccc3c2=O)cc1 | 6.17%
57 | O=C(NN1CCOCC1)c1cc(S(=O)(=O)Nc2cccc(C(F)(F)F)c2)ccc1Cl | 2.96%
